This is one part of the list. The main result of the screen is listed elsewhere. These columns were measured beside it and carry no call.
How the values were obtained:
Test in all cases: Primary Screen for Target Class Profiling of Small Molecule Inhibitors of Methyltransferases
[1] = target: Glycine N-methyltransferase (Homo sapiens) (UniProt Q14749); conditions: purified enzyme, MTase-Glo SAH luminescence; measured here: GNMT inhibition; at 40 µM; stronger effect = lower value
Method in brief: (§1)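 Each enzyme was reacted with SAM and its substrate, with compounds tested once at 40 uM; SAH formed was read by MTase-Glo luminescence.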

[2] = target: Guanidinoacetate N-methyltransferase (Homo sapiens) (UniProt Q14353); conditions: purified enzyme, MTase-Glo SAH luminescence; measured here: GAMT inhibition; at 40 µM; stronger effect = lower value
Method in brief: as §1

[3] = target: Histamine N-methyltransferase (Homo sapiens) (UniProt P50135); conditions: purified enzyme, MTase-Glo SAH luminescence; measured here: HNMT inhibition; at 40 µM; stronger effect = lower value
Method in brief: as §1

[4] = target: Nicotinamide N-methyltransferase (Homo sapiens) (UniProt P40261); conditions: purified enzyme, MTase-Glo SAH luminescence; measured here: NNMT inhibition; at 40 µM; stronger effect = lower value
Method in brief: as §1

[5] = target: Phenylethanolamine N-methyltransferase (Homo sapiens) (UniProt P11086); conditions: purified enzyme, MTase-Glo SAH luminescence; measured here: PNMT inhibition; at 40 µM; stronger effect = lower value
Method in brief: as §1
% is set by controls: 0 for no effect and ±100 for the full control effect.

Row | SMILES | activity change, negative = inhibition [1] [%] | activity change, negative = inhibition [2] [%] | activity change, negative = inhibition [3] [%] | activity change, negative = inhibition [4] [%] | activity change, negative = inhibition [5] [%]
1 | CCc1ccc(C2c3cccn3-c3sc4c(c3CN2C(=O)NCCCOC)CCCC4)cc1 (stereo not given) | -2.99 | 0 | 7.2 | -10.2 | 3.83
2 | COC(=O)[C@@H]1Cc2ncn(Cc3ccc(Cl)cc3)c2CN1CCCc1ccccc1 | -16.8 | -6.43 | -33.1 | -61.6 | -17.9
3 | C[S+](=O)([O-])N1C2CCC1CN(c1ccc(C(F)(F)F)cc1)C2 | -3.62 | -0.796 | 0.2 | -5.6 | 7.23
4 | CC1(C(=O)NC2CCCC2)Cn2c(ccc2-c2ccco2)C(=O)N1Cc1cccc(Br)c1 (stereo not given) | -13.4 | -4.18 | -6.1 | -17.7 | -7.97
5 | Cn1nc(N2CCC(NC(=O)c3ncccn3)CC2)ccc1=O | -2.62 | 1.76 | 0.465 | -2.42 | -1.8
6 | CN1C[C@H](C(=O)Nc2ccccc2)C[C@H]1c1cccc(C(F)(F)F)c1 | -5.37 | -3.23 | 0.949 | -11.3 | -30
7 | CCOc1ccc2c(-c3ccccc3)cc(=O)oc2c1 | -7.19 | 0 | 5.37 | -20.3 | -13.4
8 | COc1ccc(C(C)NC(=O)c2ccc(Cn3ccn4nc5c(c4c3=O)CCCC5)cc2)cc1OC (stereo not given) | -19.7 | -3.12 | -0.886 | -30.9 | 0.732
9 | CCOc1ccccc1CN1C(=O)c2cc3occc3n2CC1(C)C(=O)NC1CCC(C)CC1 (stereo not given) | 3.19 | 1.43 | 6.1 | 5.78 | 4.29
10 | CC(=O)N1CCC2(C1)N=C(c1ccccn1)C(=O)N2 (stereo not given) | -5.89 | -6.29 | -1.37 | -9.11 | -10
11 | O=C(c1ccc2c(=O)nc3c(-c4ccc(F)cc4)n[nH]n3c2c1)N1CCN(c2ccccc2)CC1 | 0.323 | 3.31 | -2.23 | 2.07 | -0.614
12 | CC1CCCN(c2nc3c(S(=O)(=O)c4ccccc4)nnn3c3ccc(Cl)cc23)C1 (stereo not given) | -5.79 | 1.43 | -4.27 | 1.09 | -9.13
13 | CC1(C(=O)O)CCCC2(C)C3CC4C5CC3(CCC12)CC45C (stereo not given) | -16.1 | -11.9 | 1.9 | -41.6 | -10.1
14 | CCOCCCNC(=O)CCc1nnc2n(Cc3ccc(F)cc3)c(=O)c3ccccc3n12 | -9.07 | -0.519 | -0.444 | -0.927 | -9.76
15 | Cc1ccc(NC(=O)N2CCc3c(c4ccccc4n3CC3CC3)C2)cc1 | -20.5 | -12.5 | -65.5 | -21.6 | -19.5
16 | CCC1c2ccc(C)n2CCN1C(=O)Nc1cc(C)cc(C)c1 (stereo not given) | -4.21 | 4.08 | -0.435 | 5.2 | -2.23
17 | O=C(NCc1ccncc1)C(=O)NCC(c1cccnc1)N1CCN(c2ccccc2)CC1 (stereo not given) | -4.66 | -5.88 | 9.61 | -2.3 | -2.69
18 | C/C=C1/[C@H](O[C@@H]2O[C@H](CO)[C@@H](O)[C@H](O)[C@H]2O)OC=C2C(=O)O[C@@H]3C[C@@H](C(C)CO)[C@H](COC(=O)C[C@H]21)[C@H]3C (stereo not given in full) | 1.22 | 4.32 | 8.21 | -9.13 | 5.55
19 | Cc1ccc2nc(Nc3ccc4c(c3)n(C)c(=O)n4C)c(-n3nc(C)cc3C)nc2c1 | -2.2 | 1.23 | -4.87 | 4.1 | -11.3
20 | Cc1ccc(N2CCN(S(=O)(=O)c3ccc4[nH]c5c(c4c3)CCCC5)CC2)c(C)c1 | 5.41 | 0.278 | 1.49 | 3.88 | 3.24
21 | CNC(=O)[C@@H](C1CCCCC1)N1CCC[C@H]1C(=O)NCCN1CCOCC1 | -7.22 | -9.69 | -4.33 | -11.6 | 6.25
22 | CC(C#N)C(C)O[C@@H]1O[C@H](CO)[C@@H](O)[C@H](O)[C@H]1O (stereo not given in full) | 4.89 | 5.7 | 12.1 | -5.89 | 6.43
23 | C=C1C(OC(=O)/C(C)=C\C)[C@@]23CCC4[C@@](C)(CCC[C@@]4(C)C(=O)O)C2CC[C@H]1C3OC(C)=O (stereo not given in full) | -1 | -7.68 | 0.983 | -20.5 | -2.48
24 | CCC1c2ccc(C)n2CCN1C(=O)Nc1cc(Cl)ccc1C (stereo not given) | -1.8 | 3.94 | -5.11 | -14.5 | -4.27
25 | CCCn1c(=O)c2cc(Cl)ccc2n2c(=O)n(CC(=O)N3CCN(c4ccc(F)cc4)CC3)nc12 | -2.92 | 1.44 | 4.31 | -7.84 | -1.91
26 | O=C(Cc1cccs1)N1CCOc2ccc(CN3CCCCC3)cc2C1 | -8.05 | -7.03 | -37.7 | -13.2 | -10.3
27 | CCS(=O)(=O)N1CC(F)(F)C[C@H]1c1nc(-c2cccnc2)no1 | -2.12 | -1.29 | 1.17 | -10.2 | -3.25
28 | NC1Nc2ccccc2C1(N)CC1NC(=O)C(Cc2ccccc2)NC(=O)C(Cc2ccccc2)NC1=O (stereo not given) | 2.67 | 4.09 | 3.42 | -9.55 | -3.54
29 | CN(C)C[C@H]1C[C@@H](CO)CN(C(=O)c2ccccc2-c2ccc(F)cc2)C1 | -2.79 | -5.2 | -1.4 | -6.26 | -18.3

From PubChem BioAssay AID1745853 (National Center for Advancing Translational Sciences (NCATS), 2022)
